# In PubChem BioAssay AID360 (National Center for Advancing Translational Sciences (NCATS), 2006):
# Out of some 48,000 compounds screened, about 550 (1.1%) were called active. Roughly 4% stayed inconclusive and do not appear here. Cut-off read from the data, not from the text of the source: active = potency below about 15 µM; inconclusive = mostly about 16 µM to 33 µM; inactive = weaker than that. This is one part of the list.
# Target: Lysosomal acid glucosylceramidase (Homo sapiens) (UniProt P04062)
# Chain of UniProt P04062 (P04062 whole entry, looked up): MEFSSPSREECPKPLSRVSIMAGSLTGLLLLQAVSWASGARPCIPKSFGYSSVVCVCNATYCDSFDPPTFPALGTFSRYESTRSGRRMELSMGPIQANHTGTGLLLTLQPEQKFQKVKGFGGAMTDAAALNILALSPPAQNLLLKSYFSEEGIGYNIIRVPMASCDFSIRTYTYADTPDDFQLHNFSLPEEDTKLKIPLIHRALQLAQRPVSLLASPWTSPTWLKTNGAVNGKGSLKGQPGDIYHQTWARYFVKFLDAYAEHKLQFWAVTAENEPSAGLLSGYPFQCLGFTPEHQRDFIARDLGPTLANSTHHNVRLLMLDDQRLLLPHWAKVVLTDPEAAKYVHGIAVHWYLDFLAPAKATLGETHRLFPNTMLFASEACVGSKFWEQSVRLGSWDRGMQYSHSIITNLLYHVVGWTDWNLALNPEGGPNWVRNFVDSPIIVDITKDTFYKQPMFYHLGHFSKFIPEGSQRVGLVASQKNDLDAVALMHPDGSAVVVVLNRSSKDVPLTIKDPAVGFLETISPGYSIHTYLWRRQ
# Assay: Glucocerebrosidase;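 note: the screen sought inhibitors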
# Details: purified enzyme, resorufin glucoside fluorescence (screen aimed at inhibitors), 20 min
# Procedure, shortened: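 Normal human glucocerebrosidase (0.2 nM final) was assayed with resorufin β-D-glucopyranoside (30 uM final) in 50mM citric acid/KH2PO4, 10mM sodium taurocholate, 0.01% tween-20, pH 5.9. Compounds were titrated; fluorescence (Ex 548, Em 600) read after 20 min at RT.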
# Potency is the fitted concentration of half-maximal effect.
row,Structure (SMILES),Potency
1,O=C(CN1CCOCC1)OCCCc1ccccc1,inactive: > 76.9 µM
2,O=C(c1ccc2c(c1)OCO2)[C@@H]1[C@@H]2C(=O)N(C3CCCCC3)C(=O)[C@@H]2C2c3ccccc3C=CN21 (stereo partly specified),inactive: > 76.9 µM
3,Fc1ccccc1N1CCN(c2nc3ccccc3n3nnnc23)CC1,active: 12.9 µM
4,CC(=O)Nc1ccc(S(=O)(=O)N2CCN(C(=O)N3CCOCC3)CC2)cc1,inactive: > 76.9 µM
5,COc1ccc(N(C(=O)c2ccco2)C(C(=O)NC2CCCC2)c2ccc(N(C)C)cc2)cc1 (stereo unspecified),inactive: > 76.9 µM
6,NC(=O)CSc1ncc(-c2ccccc2)[nH]1,inactive: > 76.9 µM
7,O=C1OCc2cc(NC(=O)C3CCCO3)ccc21 (stereo unspecified),inactive: > 76.9 µM
8,C=CC(C)n1c(Br)nc2c1c(=O)[nH]c(=O)n2C (stereo unspecified),inactive: > 76.9 µM
9,CC(=O)c1ccc(Oc2ncnc3sccc23)c(CN2CCOCC2)c1,inactive: > 76.9 µM
10,COc1ccc(OCC(=O)Nc2cccc3ncccc23)cc1,inactive: > 76.9 µM
11,Cc1ccc(N(C(=O)C2CCCC2)C2C=CS(=O)(=O)C2)cc1C (stereo unspecified),inactive: > 76.9 µM
12,O=C(CCCOc1ccccc1)Nc1nnc(C2CCCO2)s1 (stereo unspecified),inactive: > 76.9 µM
13,O=C(COc1ccc(S(=O)(=O)NC2CCCCC2)cc1)NCc1ccccn1,inactive: > 76.9 µM
14,OC1(Cc2ccn[nH]2)CCCCC1,inactive
15,CCOC(=O)N1CCN(C(=O)c2oc3ccc(S(=O)(=O)N4CCOCC4)cc3c2C)CC1,inactive: > 76.9 µM
16,CC1(C)Cc2c(sc3nn[nH]c(=O)c23)CO1,inactive: > 76.9 µM
17,CCn1c(Cn2nnc(-c3ccccc3)n2)nnc1SCC(=O)Nc1cccc(C)c1C,inactive: > 76.9 µM
18,CS(=O)(=O)c1ccc2nc(NC(=O)CN3CCN(Cc4ccccc4)CC3)sc2c1,inactive: > 76.9 µM
19,CN(C)S(=O)(=O)c1ccccc1C#N,inactive: > 76.9 µM
20,Cc1cccc(C)c1NC(=O)CSc1nnc(Cn2nnc(-c3ccccc3)n2)n1-c1ccccc1,inactive: > 76.9 µM
21,COC(=O)c1cc(NC(=O)CN2CCOCC2)cc(C(=O)OC)c1,inactive: > 76.9 µM
22,Clc1ccc(-c2nnc3sc(-c4ccc(Br)o4)nn23)c(Cl)c1,inactive: > 76.9 µM
23,COC(=O)c1sc(N)c(C(=O)OC)c1COC(=O)c1c(C)noc1C,inactive: > 76.9 µM

row,Structure (SMILES),Potency
1,O=C(NCc1ccco1)c1ccc(OCC2CCCO2)cc1 (stereo unspecified),inactive: > 76.9 µM
2,COC(=O)c1ccc(CSc2nc(N)cc(N)n2)cc1,inactive: > 76.9 µM
3,CCCCNC(=O)c1c(N)n(/N=C/c2ccccn2)c2nc3ccccc3nc12,inactive: > 76.9 µM
4,Cc1cc(C(=O)O)c(=O)[nH]c1C,inactive: > 76.9 µM
5,CC(=O)c1ccc(NC(=O)N[C@@H](Cc2ccccc2)C(=O)O)cc1,inactive: > 76.9 µM
6,CCCCCCn1c(CN2CCN(C(=O)OCC)CC2)nc2c1c(=O)n(C)c(=O)n2C,inactive: > 76.9 µM
7,CCOC(=O)Cc1csc(NC(=O)c2csc(C)c2)n1,inactive: > 76.9 µM
8,CC(=O)c1cccc(NC(=O)C2CCN(S(C)(=O)=O)CC2)c1,inactive: > 76.9 µM
9,CCn1ncc(Br)c1C(=O)Nc1sc2c(c1C(N)=O)CCC2,inactive: > 76.9 µM
10,COCCn1c(COc2ccc(C)cc2)nc2ccccc21,inactive: > 76.9 µM
11,CCOC(=O)/C=C1\SCC(=O)N1Cc1nnc(-c2ccccc2Br)o1,inactive: > 76.9 µM
12,CCCc1cc(=O)[nH]c(SCC(=O)Nc2ccc(OC(F)F)cc2)n1,inactive: > 76.9 µM
13,Cc1c(Cc2ccccc2)c(=O)oc2c(CN(C)C)c(O)c(Cl)cc12,inactive: > 76.9 µM
14,CC(C)(C)N1CC(COc2ccccc2)OC1=O (stereo unspecified),inactive: > 76.9 µM
15,COC(=O)c1cc(OC)c(OC)cc1NC(=O)c1ccco1,inactive: > 76.9 µM
16,Cc1cc2nc(C3CCN(Cc4nnnn4Cc4cccs4)CC3)[nH]c2cc1C,inactive: > 76.9 µM
17,COc1ccc(C2SCC(=O)N2c2c(C)n(C)n(-c3ccccc3)c2=O)c(OC)c1 (stereo unspecified),inactive: > 76.9 µM
18,COc1cc2c(C(=O)N3CCN(Cc4ccc5c(c4)OCO5)CC3)cn(C)c(=O)c2cc1OC,inactive: > 76.9 µM
19,CCn1c(SCC(=O)Nc2ccc3c(c2)c2ccccc2n3CC)nnc1-c1cnccn1,inactive: > 76.9 µM
20,CCOc1ccc(NC(=O)C2CC=CCC2C(=O)O)cc1 (stereo unspecified),inactive: > 76.9 µM
21,CCn1c(SCC(=O)Nc2cc(OC)ccc2OC)nnc1C1CCCCC1,inactive: > 76.9 µM
22,COC(=O)CN1C(=O)C2(OCCCO2)c2cc(Br)ccc21,inactive: > 76.9 µM
23,O=S(=O)(CCSc1nc2ccccc2o1)c1nc2ccccc2s1,inactive: > 76.9 µM

row,Structure (SMILES),Potency
1,CC(C)CC(NC(=O)COc1ccccc1)C(=O)O (stereo unspecified),inactive: > 76.9 µM
2,O=C(CCCCn1c(=O)c2ccccc2n(CC(=O)Nc2ccccc2)c1=O)NCc1ccco1,inactive: > 76.9 µM
3,CO/C([O-])=N/c1c[n+](-c2ccc(C)cc2)no1,inactive: > 76.9 µM
4,Cc1c(C(=O)NCc2ccccc2Cl)oc2c1C(=O)CCC2,inactive: > 76.9 µM
5,CC1CCCN(Cc2nc3c(c(=O)n(C)c(=O)n3C)n2CCCc2ccccc2)C1 (stereo unspecified),inactive: > 76.9 µM
6,O=C(Nc1ccccn1)c1cccnc1,inactive: > 76.9 µM
7,CCn1c(SCC(=O)N2c3ccccc3Sc3ccccc32)nc2c1c(=O)n(C)c(=O)n2C,inactive: > 76.9 µM
8,O=C(O)c1oc2ccccc2c1-n1cccc1,inactive: > 76.9 µM
9,CCCC(C)NS(=O)(=O)c1ccccc1 (stereo unspecified),inactive: > 76.9 µM
10,CC(NC(=O)c1cccc(C(F)(F)F)c1)C1CCCO1 (stereo unspecified),inactive: > 76.9 µM
11,CN(C)c1ccnc(NCc2ccccc2)c1C#N,inactive: > 76.9 µM
12,Cc1ccc(NS(=O)(=O)c2cccc(C(=O)O)c2)c(C)c1,inactive: > 76.9 µM
13,CC(NC(=O)CSc1n[nH]c(=O)n1C1CC1)C12CC3CC(CC(C3)C1)C2 (stereo unspecified),inactive: > 76.9 µM
14,CC(=O)/C(CN1CCCCC1)=N\O,inactive: > 76.9 µM
15,Cc1ccc(S(=O)(=O)CC(=O)N(C)C)cc1,inactive: > 76.9 µM
16,COc1ccc(CCn2c(=N)c(C(=O)N3CCN(C)CC3)cc3c(=O)n4ccccc4nc32)cc1,inactive: > 76.9 µM
17,COCC(C)n1c(C)cc(C(=O)COC(=O)c2nc3nc(C)cc(C)n3n2)c1C (stereo unspecified),inactive: > 76.9 µM
18,COc1cc(-c2nnc(SCc3ccccc3Cl)o2)cc(OC)c1OC,inactive: > 76.9 µM
19,CC(C)NC(=O)CN1CCC(O)(c2ccccc2)CC1,inactive: > 76.9 µM
20,Cc1ccc(-c2nnc(SCC(=O)N3c4ccccc4NC(=O)C3(C)C)n2N)cc1,inactive: > 76.9 µM
21,Cc1ccc(C)c(-n2c(Cc3cc(=O)[nH]c(=O)[nH]3)nnc2SCC(=O)NCc2ccco2)c1,inactive: > 76.9 µM
22,Cc1noc(C)c1S(=O)(=O)N1CCCC(C(=O)NCCc2ccccc2)C1 (stereo unspecified),inactive: > 76.9 µM
23,N#Cc1c(SCC(N)=O)nsc1SCc1ccccc1Cl,inactive: > 76.9 µM

row,Structure (SMILES),Potency
1,Cc1cnnc2c1-c1nonc1CC2,inactive: > 76.9 µM
2,c1ccc2[nH]c(SCc3cscn3)nc2c1,inactive: > 76.9 µM
3,CCOC(=O)c1ccoc1CSCc1ccc(C(=O)OC)o1,inactive: > 76.9 µM
4,COc1ccc(OC)c(CNC(=O)C2CCCN(C(=O)N(C)C)C2)c1 (stereo unspecified),inactive: > 76.9 µM
5,COc1ccccc1-n1cnc2cc(NCc3ccco3)ccc21,inactive: > 76.9 µM
6,O=C(CN1CCN(c2ncccn2)CC1)NCCC1=CCCCC1,inactive: > 76.9 µM
7,Cc1nn(-c2ccccc2)c(C)c1C(=O)OCC(=O)Nc1ccc2c(c1)OCO2,inactive: > 76.9 µM
8,Cc1noc(C)c1S(=O)(=O)N1CCC(C(=O)N2CCN(C3CCCC3)CC2)CC1,inactive: > 76.9 µM
9,CCOC(=O)CNS(=O)(=O)c1c(C)noc1C,inactive: > 76.9 µM
10,O=C1CC(c2ccccc2)n2nc(NC(=O)c3cccs3)nc2N1 (stereo unspecified),inactive: > 76.9 µM
11,O=C(c1ccc(NS(=O)(=O)c2ccccc2)cc1)N1CCN(Cc2ccc3c(c2)OCO3)CC1,inactive: > 76.9 µM
12,COc1ccc(C(=O)N2c3ccc(F)cc3CCC2C)cc1OC (stereo unspecified),inactive: > 76.9 µM
13,CC(CSc1nc2ccccc2s1)Cn1c(N2CCCC2)nc2c1c(=O)[nH]c(=O)n2C (stereo unspecified),inactive: > 76.9 µM
14,COC(=O)c1ccc(C)c(NC(=O)CN2C(=O)c3ccccc3S2(=O)=O)c1,inactive: > 76.9 µM
15,CCCn1c(NCc2cc(OC)ccc2OC)nc2ccccc21,inactive: > 76.9 µM
16,O=C(COc1ccc2oc3c(c2c1)CCCC3)Nc1ccccn1,inactive: > 76.9 µM
17,CCN(CC)S(=O)(=O)c1ccc2oc(C(=O)O)c(C)c2c1,inactive: > 76.9 µM
18,Cn1c(=O)oc2cc(S(=O)(=O)N3CCC4(CC3)OCCO4)ccc21,inactive: > 76.9 µM
19,CCCN(Cc1ccccc1)S(=O)(=O)c1ccc(N2C(=O)CCC2=O)cc1,inactive: > 76.9 µM
20,C=CCn1c(SCc2cc(=O)n3ccsc3n2)nnc1C1CCCCC1,inactive: > 76.9 µM
21,COc1ccc(OC)c(-n2cc3c(=O)n(C)c(=O)n(C)c3c2)c1,inactive: > 76.9 µM
22,COc1cc(C(=O)Nc2nc(OC)c(-c3ccccc3)c(OC)n2)cc(OC)c1OC,inactive: > 76.9 µM
